Experimental data from PubChem BioAssay AID445 (National Center for Advancing Translational Sciences (NCATS), 2006).
The whole screen tested about 110,000 compounds, of which about 40 (0.04%) were called active. The shares of active, inactive and inconclusive entries below differ from those in the screen. Calls follow the shape of the dose curve; as a rule, active = well fitted curve in the direction sought with a large enough effect in the signal ratio (not every such curve was filed as active); inconclusive = small, poorly fitted or top-dose-only effect, or a change in a side signal; inactive = flat fitted curve, though single readings scatter; the % refers to the signal ratio. Potencies of inconclusive entries are doubtful fits and often do not repeat.

assay: IkB Signaling; details: ABC-DLBCL IkBa-CBG/CBR dual luciferase ratio (green luciferase fused to IkBa over red control in OCI-Ly3 lymphoma cells), 4 h; IkBa stabilization activation: at 57.1 µM (top of the series), scaled: untreated 0%, proteasome inhibitor 100% unless noted;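 as to IkBa stabilization activation: 0% = basal untreated cells and 100% = reference inhibitor full response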
Outline: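 In this assay, an IκBα–CBG68 fusion accumulates when IKK-driven degradation is blocked; native CBR normalizes for cell number. OCI-Ly3 cells were treated 4 h with compound and doxycycline, then green and red light read after Chroma-Glo addition.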
Potency is read from the fitted curve at half-maximal effect.

Q: With Cc1cccc(NC(=O)CSc2nc(-c3ccco3)cc(C(F)(F)F)n2)c1C as the compound, how does the “IkBa stabilization activation” value read?
A: inactive: 1.98%

Q: With Cc1ccc(N(Cc2cccs2)C(=O)c2ccccc2Cl)cc1 as the compound, how does the IkBa stabilization activation read?
A: inconclusive: 1.92% [signal inhibitor]

Q: For CCCC(c1nnnn1CC1CCCO1)N1CCN(c2cc(Cl)ccc2C)CC1 (stereo not drawn), which IkBa stabilization activation is on record?
A: inconclusive: 2.42% [signal inhibitor]

Q: Which IkBa stabilization activation does the source give for C1=C(CCNc2ncnc3nc[nH]c23)CCCC1 here?
A: inconclusive: 11.1% [signal inhibitor]

Q: Which IkBa stabilization activation does the source give for COc1ccc(C(=O)NCCn2ccc3ccccc32)cc1OC here?
A: inconclusive: 1.81% [signal inhibitor]

Q: For NCCNC[C@H](O)CO, which IkBa stabilization activation is on record?
A: inactive: 1.84% [at 11.4 µM, scaled: untreated 0%, proteasome inhibitor 100%]

Q: For CCOC(=O)c1ccccc1NC(=O)CSc1nnnn1C1CCCCC1, which IkBa stabilization activation is on record?
A: inconclusive: 2.94% [signal inhibitor]

Q: With COc1ccc(COC(=O)c2n[nH]c3ccccc23)cc1F as the compound, how does the IkBa stabilization activation read?
A: inconclusive: 1.74% [signal inhibitor]

Q: With COC(=O)C1CCN(C(c2cccs2)c2sc3nc(C)nn3c2O)CC1 (stereo not drawn) as the compound, how does the “IkBa stabilization activation” value read?
A: inactive: 1.15%

Q: Which “IkBa stabilization activation” value does the source give for Cc1ccc(CCNC(=O)CCCn2c(=O)c3ccccc3n(Cc3ccccc3C)c2=O)cc1 here?
A: inactive: -2.34%

Q: For O=C(c1ccc(COc2ccc3c(c2)CCC3)o1)N1CCN(c2ccccc2)CC1, which IkBa stabilization activation is on record?
A: inconclusive: 1.25% [signal inhibitor]

Q: For COc1cc(OC)c(-c2cc(C(=O)NCc3ccc(F)cc3)c3c(-c4ccccc4)[nH]nc3n2)cc1OC, which “IkBa stabilization activation” value is on record?
A: inactive: 1.25%

Q: With CCc1ccc2[nH]c(=O)c(C(c3nnnn3CCOC)N3CCN(c4ccccc4F)CC3)cc2c1 (stereo not drawn) as the compound, how does the IkBa stabilization activation read?
A: inconclusive: 1.69% [signal inhibitor]

Q: For c1ccc(-c2nnc(CSc3nnc(-c4cccs4)o3)o2)cc1, which IkBa stabilization activation is on record?
A: inconclusive: 1.92% [signal inhibitor]

Q: With CCOc1cc(Br)cc(C2NC(=O)c3c(sc4c3CCN(C)C4)N2)c1O (stereo not drawn) as the compound, how does the IkBa stabilization activation read?
A: inconclusive: 2.94% [signal inhibitor]

Q: With COc1ccc(CNC(=O)CSc2ncc3c(n2)-c2ccc(Cl)cc2N(Cc2ccc(F)cc2)S3(=O)=O)cc1OC as the compound, how does the Potency read?
A: inconclusive: 31.6 µM [rising, single point]

Q: Which “IkBa stabilization activation” value does the source give for COc1ccc(-c2cn3cccnc3n2)cc1NC(=O)c1ccc(Br)o1 here?
A: inactive: -1.26%

Q: With O=c1c(-c2cccs2)nc2cncnc2n1-c1ccccc1 as the compound, how does the IkBa stabilization activation read?
A: inactive: 3.41% [at 11.4 µM, scaled: untreated 0%, proteasome inhibitor 100%]

Q: Which IkBa stabilization activation does the source give for O=C(CSc1c2c(nc3ccccc13)CCC2)Nc1ccc(F)cc1 here?
A: inconclusive: 6.7% [signal inhibitor]

Q: With CC(C)(C)c1ccc(C(=O)NCC(c2ccco2)S(=O)(=O)c2ccc(F)cc2)cc1 (stereo not drawn) as the compound, how does the IkBa stabilization activation read?
A: inconclusive: 2.74% [signal inhibitor]

Q: For CN(C)c1ccc(CNC(=O)c2ccc(Cn3c(=O)c4cccn4c4cccnc43)cc2)cc1, which “IkBa stabilization activation” value is on record?
A: inactive: 0.129%

Q: Which “IkBa stabilization activation” value does the source give for COc1ccc(Nc2nc(N)nc(SCc3nnc(C)s3)n2)cc1 here?
A: inactive: -1.24%

Q: For CCc1ccc2ncc(C(=O)c3ccc(C)c(C)c3)c(N3CCC(C(N)=O)CC3)c2c1, which IkBa stabilization activation is on record?
A: inconclusive: -3.95% [signal inhibitor]

Q: Which “IkBa stabilization activation” value does the source give for CCN(CC)C(c1ccc(C)cc1)c1nnnn1C1CCCCC1 (stereo not drawn) here?
A: inactive: 1.11%

Q: For Cc1cccc(N2CCN(Cc3nnc(-c4ccccc4C)o3)CC2C)c1 (stereo not drawn), which Potency is on record?
A: inconclusive: 20 µM [signal inhibitor]

Q: For Cc1ccc(Cn2c(CNC(=O)CCc3ccccc3)nc3cccnc32)cc1, which “IkBa stabilization activation” value is on record?
A: inactive: 1.2%

Q: Which IkBa stabilization activation does the source give for COc1ccc(C2=Nc3ccc(F)cc3NC(c3cccc(C(F)(F)F)c3)=N2)cc1 here?
A: inconclusive: 1.94% [signal inhibitor]

Q: For COC(=O)c1ccccc1NC(=O)c1cnc(Nc2ccc(OC)cc2)c2ccccc12, which IkBa stabilization activation is on record?
A: inconclusive: -1.09% [signal inhibitor]

Q: Which IkBa stabilization activation does the source give for CCNc1ncc2nc(-c3ccccc3)c(=O)n(-c3ccc(OC)cc3)c2n1 here?
A: inactive: -7.31% [at 11.4 µM, scaled: untreated 0%, proteasome inhibitor 100%]

Q: With O=C(O)CCC(=O)Nc1sc2c(c1C(=O)Nc1ccccc1)CCCCC2 as the compound, how does the Potency read?
A: inconclusive: 25.1 µM [signal inhibitor, single point]

Q: Which IkBa stabilization activation does the source give for Cc1ccsc1CN(C(=O)c1ccc(OCC(C)C)cc1)C1CCS(=O)(=O)C1 (stereo not drawn) here?
A: inconclusive: 1.25% [signal inhibitor]

Q: Which IkBa stabilization activation does the source give for CCc1ccc(NC(=O)c2ccc(F)c(S(=O)(=O)N3CCN(c4ccc(OC)cc4)CC3)c2)cc1 here?
A: inconclusive: -0.505% [signal inhibitor]

Q: Which IkBa stabilization activation does the source give for CCOC(=O)c1cccc(NS(=O)(=O)c2cc(-c3cnc(C4CC4)o3)ccc2C)c1 here?
A: inconclusive: 2.65% [signal inhibitor]

Q: Which IkBa stabilization activation does the source give for Cc1ccc(Sc2c(C)nn(C(=O)c3ccc(Cl)cc3)c2C)cc1 here?
A: inconclusive: 7.99% [signal inhibitor]

Q: Which IkBa stabilization activation does the source give for CCC(c1nnnn1Cc1cccs1)N1CCN(c2nc3ccccc3s2)CC1 (stereo not drawn) here?
A: inconclusive: -1.49% [signal inhibitor]

Q: With Cc1ccc(-n2c3nc(=O)[nH]c(=O)c-3cc3c(C)nn(-c4ccccc4)c32)cc1C as the compound, how does the IkBa stabilization activation read?
A: inconclusive: 0.905% [signal inhibitor]

Q: With COc1ccccc1CNC(=O)CCCN1C(=O)CSc2c1c(C)nn2-c1ccccc1 as the compound, how does the IkBa stabilization activation read?
A: inconclusive: 0.621% [signal inhibitor]

Q: With CC(=O)N1CCOc2cc(S(=O)(=O)NCc3ccc(F)cc3)c(C)cc21 as the compound, how does the IkBa stabilization activation read?
A: inconclusive: 0.125% [signal inhibitor]

Q: With O=C(NC1CCCc2ccccc21)c1ccc2c(c1)sc1nc(-c3ccccc3)cn12 (stereo not drawn) as the compound, how does the IkBa stabilization activation read?
A: inconclusive: 2.09% [signal inhibitor]

Q: Which “IkBa stabilization activation” value does the source give for Cc1ccc(Cn2c(Sc3ncccn3)nc3c2c(=O)[nH]c(=O)n3C)cc1 here?
A: inactive: -2.26%

Q: Which IkBa stabilization activation does the source give for O=C(Nc1ccc2c(c1)CCCN2C(=O)c1cccs1)c1ccccc1 here?
A: inconclusive: 1.76% [signal inhibitor]

Q: With N#CC(c1nc2ccccc2nc1N1CCCC1)S(=O)(=O)c1cccs1 (stereo not drawn) as the compound, how does the “IkBa stabilization activation” value read?
A: inactive: 3.75%

Q: Which “IkBa stabilization activation” value does the source give for CC(C)C1N=C2c3ccccc3N=C(SCC(=O)NCc3ccc(Cl)cc3)N2C1=O (stereo not drawn) here?
A: inactive: -0.365%

Q: With CC(CNC(=O)CCc1cn(Cc2ccccc2Cl)c2ccccc12)c1ccccc1 (stereo not drawn) as the compound, how does the IkBa stabilization activation read?
A: inconclusive: -1.14% [signal inhibitor]

Q: Which “IkBa stabilization activation” value does the source give for CCOc1ccccc1NC(=O)C1CCN(S(=O)(=O)c2cccs2)CC1 here?
A: inactive: 2.73%

Q: Which IkBa stabilization activation does the source give for COc1cccc(Oc2nc(C)nc3c2oc2ccccc23)c1 here?
A: inconclusive: 0.814% [signal inhibitor]

Q: With COc1cc(S(=O)(=O)N2CCN(c3ccccc3F)CC2)ccc1Cl as the compound, how does the IkBa stabilization activation read?
A: inconclusive: 3.26% [signal inhibitor]

Q: With C/C(=C\C(=O)c1ccccc1)Nc1cccc(O)c1 as the compound, how does the IkBa stabilization activation read?
A: inconclusive: 0.744% [signal inhibitor]

Q: Which Potency does the source give for Oc1ccc(Cl)cc1/C=N/c1nc2ccccc2[nH]1 here?
A: inconclusive: 5.01 µM [signal inhibitor, partial curve]

Q: Which “IkBa stabilization activation” value does the source give for Cc1cc(C)cc(NC(=O)Nc2ccc3nc(N4CCN(C)CC4)cc(C)c3c2)c1 here?
A: inactive: -5.98%

Q: For Cc1nc(N2CCCC2)c2c(C(=O)Nc3cccc(Cl)c3)c(C)oc2n1, which IkBa stabilization activation is on record?
A: inconclusive: 0.715% [signal inhibitor]

Q: With O=C(Nc1ccc(Br)cc1)C1CCCN(S(=O)(=O)c2ccc(Br)s2)C1 (stereo not drawn) as the compound, how does the IkBa stabilization activation read?
A: inconclusive: 4.02% [signal inhibitor]

Q: With Fc1cccc2sc(Nc3nnc(-c4ccco4)o3)nc12 as the compound, how does the Potency read?
A: inconclusive: 7.94 µM [falling, single point]

Q: For Cc1nnc(NC(=O)c2sc3ccccc3c2Cl)s1, which IkBa stabilization activation is on record?
A: inconclusive: 1.89% [signal inhibitor]

Q: Which IkBa stabilization activation does the source give for O=C(NCc1ccco1)c1cccn2c(=O)c3cc(Br)ccc3nc12 here?
A: inconclusive: 17% [signal inhibitor]

Q: For Cc1ccc(NC(=O)CN2C(=O)C(c3ccc(F)cc3)=NC23CCCCC3)c(C)c1, which IkBa stabilization activation is on record?
A: inconclusive: 2.68% [signal inhibitor]

Q: With N#Cc1ccc(CN2CCCC3(CCN(C(=O)c4cnccn4)CC3)C2)cc1 as the compound, how does the IkBa stabilization activation read?
A: inactive: 0.951% [at 11.4 µM, scaled: untreated 0%, proteasome inhibitor 100%]

Q: For Cc1ccc(C)c(Cn2c(C(C)NC(=O)c3ccc(F)cc3)nc3ccccc32)c1 (stereo not drawn), which IkBa stabilization activation is on record?
A: inconclusive: 1.19% [signal inhibitor]

Q: Which IkBa stabilization activation does the source give for CCN(c1ccccc1)S(=O)(=O)c1cc(-c2onc(C)c2C)ccc1OC here?
A: inconclusive: 5.18% [signal inhibitor]

Q: Which IkBa stabilization activation does the source give for Cc1c2cnn(CC(=O)N3CCN(c4ccccc4)CC3)c(=O)c2c(C)n1Cc1ccc(F)cc1 here?
A: inconclusive: 0.379% [signal inhibitor]

Q: Which “IkBa stabilization activation” value does the source give for COc1ccc(O)c(C(=O)CC(=O)c2ccccc2)c1 here?
A: inactive: 15.7%

Q: With CC1(C)CC(=O)C2=C(C1)OC1=C(C(=O)CC(C)(C)C1)C2c1ccc(O)cc1O as the compound, how does the IkBa stabilization activation read?
A: inconclusive: -5.08%

Q: With CCOCCCNC(=O)C(c1ccccc1)N(Cc1cccs1)C(=O)c1ccc(NC(C)=O)cc1 (stereo not drawn) as the compound, how does the IkBa stabilization activation read?
A: inconclusive: 6.16% [signal inhibitor]

Q: Which IkBa stabilization activation does the source give for COc1cccc(N2C(=O)C(CC(=O)Nc3ccc(Cl)cc3)N(Cc3ccc4c(c3)OCO4)C2=O)c1 (stereo not drawn) here?
A: inconclusive: 0.629% [signal inhibitor]

Q: Which IkBa stabilization activation does the source give for COc1ccccc1-c1cncnc1NCc1ccccc1 here?
A: inactive: -1.29% [at 11.4 µM, scaled: untreated 0%, proteasome inhibitor 100%]

Q: With Cc1cccc(N2CCN(C(=O)C3CCCN(S(=O)(=O)c4cccc5nsnc45)C3)CC2)c1C (stereo not drawn) as the compound, how does the IkBa stabilization activation read?
A: inconclusive: 1.53% [signal inhibitor]

Q: With Cc1cccc(-c2noc(CCCC(=O)NCc3ccco3)n2)c1 as the compound, how does the IkBa stabilization activation read?
A: inconclusive: -5.56% [signal inhibitor]

Q: Which IkBa stabilization activation does the source give for Cc1ccc(Nc2ncnc3c2cnn3-c2ccccc2)c(C)c1 here?
A: inconclusive: -0.418% [signal inhibitor]
